SMILES strings stand for the structures. Inconclusive results are not listed. Calls come from the whole dose curve. Some structures have more than one record in an assay (separate samples or runs), and their calls can disagree. Certain results were filed several times, with different values. They are shown here; other results are not. The source may hold further records. The values listed for one entry repeat one measurement across runs, samples, wells, individuals or studies. Marks in square brackets tell the records apart. The letters are not those of the source and start again with each entry.

This test concerns the target Retinoic acid receptor RXR-alpha (Homo sapiens) (UniProt P19793). The test is described as follows: qHTS assay for small molecule agonists of retinoid X receptor alpha signaling (AID 588544). The note with it: HEK293T RXRa-UAS-bla, beta-lactamase reporter, 18 h; series mostly up to 76.7 µM.
Chain of UniProt P19793 (P19793 whole entry, looked up): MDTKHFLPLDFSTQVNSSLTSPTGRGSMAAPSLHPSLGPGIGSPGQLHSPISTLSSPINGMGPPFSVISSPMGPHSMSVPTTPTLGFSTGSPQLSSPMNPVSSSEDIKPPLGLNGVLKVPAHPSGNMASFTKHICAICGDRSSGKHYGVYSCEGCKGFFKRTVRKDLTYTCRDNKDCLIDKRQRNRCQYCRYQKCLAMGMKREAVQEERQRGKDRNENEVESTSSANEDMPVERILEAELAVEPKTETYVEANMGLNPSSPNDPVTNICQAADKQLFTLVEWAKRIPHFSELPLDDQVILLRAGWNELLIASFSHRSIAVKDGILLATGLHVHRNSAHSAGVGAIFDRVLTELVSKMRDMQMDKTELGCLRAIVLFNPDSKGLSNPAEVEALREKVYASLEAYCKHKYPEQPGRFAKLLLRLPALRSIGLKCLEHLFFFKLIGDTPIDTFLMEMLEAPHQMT
Potency is the fitted concentration of half-maximal effect.

On to `c1ccc(-c2ccccc2)cc1`, for which the Potency entry is “inactive [sample A] and active: 35.5 µM [sample B]”.

The values are drawn from PubChem BioAssay (NCATS).
